Assay results reported in the supplement of paper PMC11417369.
The list shows a part of the results.

Each sequence was assayed on PfAP2-HC AP2 domain (GST-tagged) (assay: gcPBM binding intensity (ln(normalized median fluorescence intensity)); higher = stronger DNA binding).
Summary of the method: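 In this array assay, P. falciparum DNA-binding domains with a GST tag, expressed in E. coli, were applied for 1 h to primer-extended double-stranded 36-bp intergenic genomic probes and negative controls on an Agilent 4 × 180k array. Bound protein was visualised with Alexa488 anti-GST antibody at 488 nm. Binding intensity is the highest Masliner-normalised natural-log median intensity across replicate spots of either probe orientation.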

Sequence | gcPBM binding intensity (ln)
AACCAATATGTGTATACACACATAAATATAAATATA [CACACA_site7729] | 10
AAAAAAAAAAAAAGGTGTACATAAGTAAATTCATAT [XGTACX_site4206] | 9.88
CTTTTCTTTTTTTTTTGTACATAAAATTATTCCTTA [XGTACX_site3924] | 9.75
AATATAGTCACACATACACACATATAGATTTATATA [CACACA_site7223] | 10
TTTTGTTGCTCTTTTTTTTTTTTTTTTAACTGTATG [CACACA_negctrl_site1072] | 9.67
TTATTTTGTTTTAAAAGTACACACTTTTAATTAGAT [XGTACX_site2271] | 9.71
ATAATAAGCAAACACACACACACAAAAAAAAAAAAA [CACACA_site720] | 11.6
TATATAAACACGTACACACACATATAGGTATTTATA [CACACA_site7615] | 10.8
ACAGAATACATATACACACATACAAAAAAGTGCATA [CACACA_site987] | 10.3
TCATACTGTATATTTTGTACTTATATATATATTATA [XGTACX_site6136] | 10
CATTATGTTGTAAATGCACACATACATATACACAGT [CACACA_site8990] | 10
TTTGCTTCCAAAAGTCGTACAAAAAATATTAAATAT [XGTACX_site4171] | 9.3
TACAAAAGCGATACGGCACACATTTCCTGTTTAAAT [CACACA_site2746] | 9.82
AAAAGATTGCTCCGCATGCACCTCCAAAAGTTCCTT [GTGCAC_site9993] | 9.48
ATGAATGTCCCAAGATGTACAATTATATATAACACA [XGTACX_site4702] | 9.58
AAATCCTTATTTTTTTGTACGTAATATTTTATATGG [XGTACX_site1530] | 9.62
TAATAAATAAGACACACACACATATATATATATTAT [CACACA_site1389] | 10.3
GAGTAAAAATTAAAATGTACATATTATATATATTTA [XGTACX_site1319] | 9.58
AGTAAATAACACAAATATGAATGAAAAAAAAAATAT [GTGCAC_negctrl_site235] | 10.1
CAACTTATTAAAAGTCGTACAAATGGGAAGAAGGAA [XGTACX_site6325] | 9.66
TGTGCGGAAATAAGTGCACACATAGATATCTGTATT [CACACA_site5935] | 9.8
ATATATATATAGTACGCACACATAGTTGTACATTAA [CACACA_site2787] | 9.95

Sequence | gcPBM binding intensity (ln)
CGTATGAGTAAATACACACCCACGTATATATATAAA [CACACA_site5728] | 9.66
ATAATTATTAATATAGTGCATTGGCATAATAATATA [GTGCAC_site9810] | 9.7
ATATTAATATAATGTGCATGTTCAATGATCTTTTTA [TGCATGCA_site22] | 9.6
TTATACAACAAGAAAATTATAAAATGTAACATATAT [GTGCAC_negctrl_site406] | 9.57
TATTTTTTAACACAACGTACATATAAAAAATATTTA [XGTACX_site6025] | 9.43
TACAAATATATATGCACACACATATATGTATATGTG [CACACA_site3075] | 10
TTAGATATAATATATACACACCAACGAACGAAGAAA [CACACA_site4763] | 9.97
AAAAAAATTTATTAAAGTACTAGATAATCATATAAA [XGTACX_site1455] | 9.6
TTCTTTTCTCTTTTAATCATATTATATAAATGAATA [CACACA_negctrl_site820] | 9.53
ATATATAAAAAAGCTAGTACACAAAAATATATAATG [XGTACX_site3001] | 10.2
AAAAATTTTATATTCACACACATATTTATATTTATA [CACACA_site6439] | 9.96
AGAATAATATAATAAAGTACAAACCTATCTAACTAC [XGTACX_site5477] | 9.92
ATTATAAATAAATATTGTACTTATATGATCTATTTG [XGTACX_site3820] | 9.53
CCTTTCACATATAATACATGCATTATTATATATGAA [TGCATGCA_site287] | 9.49
GGATATATTATATGTACACACACATATAAGGGATTA [CACACA_site7884] | 9.99
ATTGCATTTGTAGATAATACAATATGGATTGTTATA [CACACA_negctrl_site1749] | 9.44
TCACAAATGTATTATACACACAAGTTTTCTTTAATA [CACACA_site4107] | 9.71
ATATTAACTTTTATTACACACTCTCAACTTTTATTT [CACACA_site6176] | 10.1
ATTTATTTATTTTCATGTACATATGTAAATCAATAA [XGTACX_site3886] | 9.64
TATATAATATAATGTAGTACATGTTTTATTTTTTAC [XGTACX_site7735] | 9.69
ATAAAATACAAAGGGACACACATATGAGTCTACAAA [CACACA_site3092] | 10.4
TAAACACATTATATATGTACATAATAAAAAAAAAAA [XGTACX_site7907] | 9.93
